Measurements from the supplement of paper PMC11876631.
± gives the standard deviation of the averaged measurements. Laboratory Escherichia coli strains with one amino-acid change in an essential protein, pooled on minimal glucose agar with carbenicillin or gentamicin at twice the control MIC (plus kanamycin and chloramphenicol for the plasmids), 48 h. Fold change of barcode share against drug-free plates; higher = less susceptible. Active = above 20 in both replicates (the paper's putatively resistant). '<' = one read or none on drug, '>' = one read or none on a drug-free plate. Shares are relative, so most strains fall below 1 when a few take over. Listed are strains with at least 15 reads on both drug-free plates, and hits; most hits rest on fewer reference reads. Replicate rank correlation about 0.5. Edits are read from barcodes.

B1: fbaA L335D (protein)
chain: MSKIFDFVKPGVITGDDVQKVFQVAKENNFALPAVNCVGTDSINAVLETAAKVKAPVIVQFSNGGASFIAGKGVKSDVPQGAAILGAISGAHHVHQMAEHYGVPVILHTDHCAKKLLPWIDGLLDAGEKHFAATGKPLFSSHMIDLSEESLQENIEICSKYLERMSKIGMTLEIELGCTGGEEDGVDNSHMDASALYTQPEDVDYAYTELSKISPRFTIAASFGNVHGVYKPGNVVLTPTILRDSQEYVSKKHNLPHNSLNFVFHGGSGSTAQEIKDSVSYGVVKMNIDTDTQWATWEGVLNYYKANEAYLQGQLGNPKGEDQPNKKYYDPRVWDRAGQTSMIARLEKAFQELNAIDVL
B2: fbaA I120Q (protein)
chain: MSKIFDFVKPGVITGDDVQKVFQVAKENNFALPAVNCVGTDSINAVLETAAKVKAPVIVQFSNGGASFIAGKGVKSDVPQGAAILGAISGAHHVHQMAEHYGVPVILHTDHCAKKLLPWQDGLLDAGEKHFAATGKPLFSSHMIDLSEESLQENIEICSKYLERMSKIGMTLEIELGCTGGEEDGVDNSHMDASALYTQPEDVDYAYTELSKISPRFTIAASFGNVHGVYKPGNVVLTPTILRDSQEYVSKKHNLPHNSLNFVFHGGSGSTAQEIKDSVSYGVVKMNIDTDTQWATWEGVLNYYKANEAYLQGQLGNPKGEDQPNKKYYDPRVWLRAGQTSMIARLEKAFQELNAIDVL
B3: ffh L188Q (protein)
chain: MFDNLTDRLSRTLRNISGRGRLTEDNVKDTLREVRMALLEADVALPVVREFINRVKEKAVGHEVNKSLTPGQEFVKIVRNELVAAMGEENQTLNLAAQPPAVVLMAGLQGAGKTTSVGKLGKFLREKHKKKVLVVSADVYRPAAIKQLETLAEQVGVDFFPSDVGQKPVDIVNAALKEAKLKFYDVLQVDTAGRLHVDEAMMDEIKQVHASINPVETLFVVDAMTGQDAANTAKAFNEALPLTGVVLTKVDGDARGGAALSIRHITGKPIKFLGVGEKTEALEPFHPDRIASRILGMGDVLSLIEDIESKVDRAQAEKLASKLKKGDGFDLNDFLEQLRQMKNMGGMASLMGKLPGMGQIPDNVKSQMDDKVLVRMEAIINSMTMKERAKPEIIKGSRKRRIAAGCGMQVQDVNRLLKQFDDMQRMMKKMKKGGMAKMMRSMKGMMPPGFPGR
B4: ffh V135W (protein)
chain: MFDNLTDRLSRTLRNISGRGRLTEDNVKDTLREVRMALLEADVALPVVREFINRVKEKAVGHEVNKSLTPGQEFVKIVRNELVAAMGEENQTLNLAAQPPAVVLMAGLQGAGKTTSVGKLGKFLREKHKKKVLVWSADVYRPAAIKQLETLAEQVGVDFFPSDVGQKPVDIVNAALKEAKLKFYDVLLVDTAGRLHVDEAMMDEIKQVHASINPVETLFVVDAMTGQDAANTAKAFNEALPLTGVVLTKVDGDARGGAALSIRHITGKPIKFLGVGEKTEALEPFHPDRIASRILGMGDVLSLIEDIESKVDRAQAEKLASKLKKGDGFDLNDFLEQLRQMKNMGGMASLMGKLPGMGQIPDNVKSQMDDKVLVRMEAIINSMTMKERAKPEIIKGSRKRRIAAGCGMQVQDVNRLLKQFDDMQRMMKKMKKGGMAKMMRSMKGMMPPGFPGR
B5: fldA L51Q (protein)
chain: MAITGIFFGSDTGNTENIAKMIQKQLGKDVADVHDIAKSSKEDLEAYDILQLGIPTWYYGEAQCDWDDFFPTLEEIDFNGKLVALFGCGDQEDYAEYFCDALGTIRDIIEPRGATIVGHWPTAGYHFEASKGLADDDHFVGLAIDEDRQPELTAERVEKWVKQISEELHLDEILNA
B6: fldA L52Q (protein)
chain: MAITGIFFGSDTGNTENIAKMIQKQLGKDVADVHDIAKSSKEDLEAYDILLQGIPTWYYGEAQCDWDDFFPTLEEIDFNGKLVALFGCGDQEDYAEYFCDALGTIRDIIEPRGATIVGHWPTAGYHFEASKGLADDDHFVGLAIDEDRQPELTAERVEKWVKQISEELHLDEILNA
B7: accA I200W (protein)
chain: MSLNFLDFEQPIAELEAKIDSLTAVSRQDEKLDINIDEEVHRLREKSVELTRKIFADLGAWQIAQLARHPQRPYTLDYVRLAFDEFDELAGDRAYADDKAIVGGIARLDGRPVMIIGHQKGRETKEKIRRNFGMPAPEGYRKALRLMQMAERFKMPIITFIDTPGAYPGVGAEERGQSEAIARNLREMSRLGVPVVCTVWGEGGSGGALAIGVGDKVNMLQYSTYSVISPEGCASILWKSADKAPLAAEAMGIIAPRLKELKLIDSIIPEPLGGAHRNPEAMAASLKAQLLADLADLDVLSTEDLKNRRYQRLMSYGYA
B8: folE V11W (protein)
chain: MPSLSKEAALWHEALVARGLETPLRPPVHEMDNETRKSLIAGHMTEIMQLLNLDLADDSLMETPHRIAKMYVDEIFSGLDYANFPKITLIENKMKVDEMVTVRDITLTSTCEHHFVTIDGKATVAYIPKDSVIGLSKINRIVQFFAQRPQVQERLTQQILIALQTLLGTNNVAVSIDAVHYCVKARGIRDATSATTTTSLGGLFKSSQNTRHEFLRAVRHHN
B9: folE M99W (protein)
chain: MPSLSKEAALVHEALVARGLETPLRPPVHEMDNETRKSLIAGHMTEIMQLLNLDLADDSLMETPHRIAKMYVDEIFSGLDYANFPKITLIENKMKVDEWVTVRDITLTSTCEHHFVTIDGKATVAYIPKDSVIGLSKINRIVQFFAQRPQVQERLTQQILIALQTLLGTNNVAVSIDAVHYCVKARGIRDATSATTTTSLGGLFKSSQNTRHEFLRAVRHHN
B10: frr V69W (protein)
chain: MISDIRKDAEVRMDKCVEAFKTQISKIRTGRASPSLLDGIVVEYYGTPTPLRQLASVTVEDSRTLKINWFDRSMSPAVEKAIMASDLGLNPNSAGSDIRVPLPPLTEERRKDLTKIVRGEAEQARVAVRNVRRDANDKVKALLKDKEISEDDDRRSQDDVQKLTDAAIKKIEAALADKEAELMQF
B11: accA V102Q (protein)
chain: MSLNFLDFEQPIAELEAKIDSLTAVSRQDEKLDINIDEEVHRLREKSVELTRKIFADLGAWQIAQLARHPQRPYTLDYVRLAFDEFDELAGDRAYADDKAIQGGIARLDGRPVMIIGHQKGRETKEKIRRNFGMPAPEGYRKALRLMQMAERFKMPIITFIDTPGAYPGVGAEERGQSEAIARNLREMSRLGVPVVCTVIGEGGSGGALAIGVGDKVNMLQYSTYSVISPEGCASILWKSADKAPLAAEAMGIIAPRLKELKLIDSIIPEPLGGAHRNPEAMAASLKAQLLADLADLDVLSTEDLKNRRYQRLMSYGYA
B12: ftsA V57Q (protein)
chain: MIKATDRKLVVGLEIGTAKVAALVGEVLPDGMVNIIGVGSCPSRGMDKGGVNDLESQVKCVQRAIDQAELMADCQISSVYLALSGKHISCQNEIGMVPISEEEVTQEDVENVVHTAKSVRVRDEHRVLHVIPQEYAIDYQEGIKNPVGLSGVRMQAKVHLITCHNDMAKNIVKAVERCGLKVDQLIFAGLASSYSVLTEDERELGVCVVDIGGGTMDIAVYTGGALRHTKVIPYAGNVVTSDIAYAFGTPPSDAEAIKVRHGCALGSIVGKDESVEVPSVGGRPPRSLQRQTLAEVIEPRYTELLNLVNEEILQLQEKLRQQGVKHHLAAGIVLTGGAAQIEGLAACAQRVFHTQVRIGAPLNITGLTDYAQEPYYSTAVGLLHYGKESHLNGEAEVEKRVTASVGSWIKRLNSWLRKEF
B13: ftsA V58A (protein)
chain: MIKATDRKLVVGLEIGTAKVAALVGEVLPDGMVNIIGVGSCPSRGMDKGGVNDLESVAKCVQRAIDQAELMADCQISSVYLALSGKHISCQNEIGMVPISEEEVTQEDVENVVHTAKSVRVRDEHRVLHVIPQEYAIDYQEGIKNPVGLSGVRMQAKVHLITCHNDMAKNIVKAVERCGLKVDQLIFAGLASSYSVLTEDERELGVCVVDIGGGTMDIAVYTGGALRHTKVIPYAGNVVTSDIAYAFGTPPSDAEAIKVRHGCALGSIVGKDESVEVPSVGGRPPRSLQRQTLAEVIEPRYTELLNLVNEEILQLQEKLRQQGVKHHLAAGIVLTGGAAQIEGLAACAQRVFHTQVRIGAPLNITGLTDYAQEPYYSTAVGLLHYGKESHLNGEAEVEKRVTASVGSWIKRLNSWLRKEF
B14: ftsA V58D (protein)
chain: MIKATDRKLVVGLEIGTAKVAALVGEVLPDGMVNIIGVGSCPSRGMDKGGVNDLESVDKCVQRAIDQAELMADCQISSVYLALSGKHISCQNEIGMVPISEEEVTQEDVENVVHTAKSVRVRDEHRVLHVIPQEYAIDYQEGIKNPVGLSGVRMQAKVHLITCHNDMAKNIVKAVERCGLKVDQLIFAGLASSYSVLTEDERELGVCVVDIGGGTMDIAVYTGGALRHTKVIPYAGNVVTSDIAYAFGTPPSDAEAIKVRHGCALGSIVGKDESVEVPSVGGRPPRSLQRQTLAEVIEPRYTELLNLVNEEILQLQEKLRQQGVKHHLAAGIVLTGGAAQIEGLAACAQRVFHTQVRIGAPLNITGLTDYAQEPYYSTAVGLLHYGKESHLNGEAEVEKRVTASVGSWIKRLNSWLRKEF
B15: ftsA L382A (protein)
chain: MIKATDRKLVVGLEIGTAKVAALVGEVLPDGMVNIIGVGSCPSRGMDKGGVNDLESVVKCVQRAIDQAELMADCQISSVYLALSGKHISCQNEIGMVPISEEEVTQEDVENVVHTAKSVRVRDEHRVLHVIPQEYAIDYQEGIKNPVGLSGVRMQAKVHLITCHNDMAKNIVKAVERCGLKVDQLIFAGLASSYSVLTEDERELGVCVVDIGGGTMDIAVYTGGALRHTKVIPYAGNVVTSDIAYAFGTPPSDAEAIKVRHGCALGSIVGKDESVEVPSVGGRPPRSLQRQTLAEVIEPRYTELLNLVNEEILQLQEKLRQQGVKHHLAAGIVLTGGAAQIEGLAACAQRVFHTQVRIGAPLNITGLTDYAQEPYYSTAVGALHYGKESHLNGEAEVEKRVTASVGSWIKRLNSWLRKEF

Molecular target: Escherichia coli (laboratory strain)
Experiment: barcode share on antibiotic plates over drug-free plates; higher = less susceptible
Settings: antibiotic: gentamicin; 2× MIC (MIC 0.45 µg/mL)
Method: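 A pool of E. coli strains, each edited to carry one amino-acid change in an essential protein, was grown for 48 h on minimal glucose agar with or without antibiotic; strain barcodes were sequenced; mean of two replicates.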

Protein | fold change of barcode share
B1 | > 50.6 [active]
B2 | > 509 [active]
B3 | < 0.0206
B4 | < 0.0149
B5 | < 0.0156
B6 | < 0.0208
B7 | < 0.0226
B8 | < 0.0184
B9 | < 0.0129
B10 | 0.0342 ± 0.017
B11 | < 0.0226
B12 | < 0.0152
B13 | 0.011 ± 0.0095
B14 | 0.00904 ± 0.0037
B15 | < 0.0177
